{"source": "paper PMC4336329", "about": "(PLoS ONE, 2015)", "note": "Among all 310,000 compounds or so, about 2,200 (0.71%) showed an effect of 50% or more. Effects have a minus sign here. The list shows a part of the results.", "data": [{"target": "human ether-à-go-go-related gene (hERG) potassium channel (human, UniProt Q12809)", "sequence (Q12809 whole entry, looked up)": "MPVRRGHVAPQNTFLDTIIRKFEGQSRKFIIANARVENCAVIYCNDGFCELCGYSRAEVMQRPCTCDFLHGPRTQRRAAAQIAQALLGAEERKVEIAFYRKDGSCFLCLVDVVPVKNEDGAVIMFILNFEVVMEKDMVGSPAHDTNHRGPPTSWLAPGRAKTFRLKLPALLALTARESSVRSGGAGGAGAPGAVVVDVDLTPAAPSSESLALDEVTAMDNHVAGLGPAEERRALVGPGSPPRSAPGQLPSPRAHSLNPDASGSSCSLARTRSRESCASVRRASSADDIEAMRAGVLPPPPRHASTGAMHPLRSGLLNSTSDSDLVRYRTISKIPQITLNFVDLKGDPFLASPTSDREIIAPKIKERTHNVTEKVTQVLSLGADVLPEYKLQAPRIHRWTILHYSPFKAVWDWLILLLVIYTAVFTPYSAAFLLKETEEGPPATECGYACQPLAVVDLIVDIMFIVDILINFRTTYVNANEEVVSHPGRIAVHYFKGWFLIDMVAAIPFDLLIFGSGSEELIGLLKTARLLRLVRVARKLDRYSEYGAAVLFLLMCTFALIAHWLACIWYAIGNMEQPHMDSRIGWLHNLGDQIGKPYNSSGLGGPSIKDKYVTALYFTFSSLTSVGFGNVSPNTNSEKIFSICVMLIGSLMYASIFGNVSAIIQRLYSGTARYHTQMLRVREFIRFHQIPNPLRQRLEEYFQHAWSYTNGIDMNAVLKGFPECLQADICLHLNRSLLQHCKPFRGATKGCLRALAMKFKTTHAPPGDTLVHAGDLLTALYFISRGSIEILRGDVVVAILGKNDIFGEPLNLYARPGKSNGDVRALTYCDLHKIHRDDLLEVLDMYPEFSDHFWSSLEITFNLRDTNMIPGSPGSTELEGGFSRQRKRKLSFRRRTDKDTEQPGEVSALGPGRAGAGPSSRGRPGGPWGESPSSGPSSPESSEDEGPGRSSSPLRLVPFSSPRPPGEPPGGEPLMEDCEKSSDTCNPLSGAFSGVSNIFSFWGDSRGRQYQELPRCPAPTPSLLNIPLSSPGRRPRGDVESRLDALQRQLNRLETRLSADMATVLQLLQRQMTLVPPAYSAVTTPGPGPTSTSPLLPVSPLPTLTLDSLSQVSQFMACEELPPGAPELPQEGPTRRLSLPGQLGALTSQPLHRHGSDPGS", "experiment": "primary screen, population patch clamp on CHO cells stably expressing hERG", "units": {"hERG current change (%, negative = inhibition) at 1uM": "%"}, "values": [{"smiles": "C/C(=N/NC(=O)CN1CCN(Cc2ccccc2Cl)CC1)c1cccnc1", "hERG current change (%, negative = inhibition) at 1uM": -1.17}, {"smiles": "CCC1CCCCN1CCCNC(=O)C1CCN(S(=O)(=O)N2CCC3(CC2)OCCO3)CC1", "note": "(stereo not shown)", "hERG current change (%, negative = inhibition) at 1uM": 13.7}, {"smiles": "COC1=C/C(=C/c2c(O)c(C#N)c3ccccn23)C=CC1=O", "hERG current change (%, negative = inhibition) at 1uM": 15.5}, {"smiles": "O=C1CCCN2N=C(SCC(=O)N3CCCCC3)SC2=N1", "hERG current change (%, negative = inhibition) at 1uM": 7.89}, {"smiles": "CCc1nc(SCC(=O)N2CCCC2)c2c(=O)n(C)c(=O)n(C)c2n1", "hERG current change (%, negative = inhibition) at 1uM": 8.53}, {"smiles": "CC1CCCCN1CCCNC(=O)CN1C(=O)c2cccnc2Oc2ccc(Cl)cc21", "note": "(stereo not shown)", "hERG current change (%, negative = inhibition) at 1uM": 7.94}, {"smiles": "CC(C)Oc1ccc(C(CCNCc2ccc(O)cc2)c2ccccc2)cc1", "note": "(stereo not shown)", "hERG current change (%, negative = inhibition) at 1uM": 9.26}, {"smiles": "Cc1ccc2nc3c(c(Nc4ccc(O)cc4)c2c1)CCC3.Cl", "hERG current change (%, negative = inhibition) at 1uM": 3.99}, {"smiles": "CCOC(=O)c1cnc(-n2nc(C)cc2C)nc1Nc1cccc(C(=O)O)c1", "hERG current change (%, negative = inhibition) at 1uM": 8.24}, {"smiles": "COc1cc(C2c3c(-c4ccccc4)n[nH]c3C(=O)N2c2ccccc2)ccc1O", "note": "(stereo not shown)", "hERG current change (%, negative = inhibition) at 1uM": 26.1}, {"smiles": "CC1=Nc2ccccc2/C1=C/c1sc(=N)n(-c2nccs2)c1O", "hERG current change (%, negative = inhibition) at 1uM": 12.9}, {"smiles": "COc1ccc(CC(=O)N/N=C(\\C)CC(=O)Nc2ccc3c(c2)OCCO3)cc1", "hERG current change (%, negative = inhibition) at 1uM": 8.23}, {"smiles": "COCCCNC(=S)N1CCC(NC(=O)c2ccco2)CC1", "hERG current change (%, negative = inhibition) at 1uM": 5}, {"smiles": "O=C(CN(Cc1ccccc1)S(=O)(=O)c1ccccc1)N/N=C/c1ccccc1[N+](=O)[O-]", "hERG current change (%, negative = inhibition) at 1uM": -3.4}, {"smiles": "CCC1COC(c2cccn2Cc2ccc(Cl)cc2)=N1", "note": "(stereo not shown)", "hERG current change (%, negative = inhibition) at 1uM": 12.3}, {"smiles": "C#CCOCCOCCOCCNc1nc(N2CCN(C(=O)[C@H](Cc3cc4ccccc4[nH]3)n3cc(C(N)CC(C)C)nn3)CC2)nc(N2CCN(C(=O)[C@H](CCC(=O)O)n3cc(C(N)[C@H](C)CC)nn3)CC2)n1.Cl", "note": "(stereo partly shown)", "hERG current change (%, negative = inhibition) at 1uM": 9.27}, {"smiles": "CCOCCCNC(=O)C(NC(=O)CNC(=O)c1ccccc1)c1ccccc1", "note": "(stereo not shown)", "hERG current change (%, negative = inhibition) at 1uM": 21.4}, {"smiles": "O=C(NC(=S)NC1CCS(=O)(=O)C1)c1cccs1", "note": "(stereo not shown)", "hERG current change (%, negative = inhibition) at 1uM": 14.4}, {"smiles": "CN(C)C(=O)CSc1cnc2ccccc2n1", "hERG current change (%, negative = inhibition) at 1uM": 6.47}, {"smiles": "COc1ccc(C2C(C(=O)N3CCN(c4ccccc4)CC3)c3ccccc3C(=O)N2C)cc1OC", "note": "(stereo not shown)", "hERG current change (%, negative = inhibition) at 1uM": 0.0015}, {"smiles": "CCN(CC)CCNC(=O)c1ccc(NC(=O)/C=C/c2cc(OC)c(OC)c(OC)c2)cc1.Cl", "hERG current change (%, negative = inhibition) at 1uM": 7.53}, {"smiles": "CC(C)CNS(=O)(=O)c1cc(C(=O)OCC(=O)c2ccc3c(c2)OCCO3)c(Cl)cc1Cl", "hERG current change (%, negative = inhibition) at 1uM": 13.7}, {"smiles": "CN(C)CCn1c(=S)[nH]c2ccccc2c1=O", "hERG current change (%, negative = inhibition) at 1uM": 12}, {"smiles": "O=C(CNC(=S)N(Cc1ccccc1F)C1CCCCC1)NC1CC1", "hERG current change (%, negative = inhibition) at 1uM": 0.375}, {"smiles": "COc1ccc(N2CCN(C(=O)c3cc(=O)c4cc(C)ccc4o3)CC2)cc1", "hERG current change (%, negative = inhibition) at 1uM": -3.09}, {"smiles": "CCCCCCc1nc2ccccc2c(=O)n1NC(=O)c1c(O)c2c(n(CC(C)C)c1=O)CCCC2", "hERG current change (%, negative = inhibition) at 1uM": 5.89}, {"smiles": "CCn1cc(C2=NC(C)CO2)c2ccccc21", "note": "(stereo not shown)", "hERG current change (%, negative = inhibition) at 1uM": -0.637}, {"smiles": "CCc1cccc(OCCCn2ccnc2)c1.O=C(O)C(=O)O", "hERG current change (%, negative = inhibition) at 1uM": 1.69}, {"smiles": "CC1CCC(NC(=O)c2ccc(-n3cncn3)c([N+](=O)[O-])c2)CC1", "note": "(stereo not shown)", "hERG current change (%, negative = inhibition) at 1uM": 5.38}, {"smiles": "CC(C)(C)C(=O)Nc1sc2c(c1C#N)CCN(Cc1ccccc1)C2.Cl", "hERG current change (%, negative = inhibition) at 1uM": 10.3}, {"smiles": "CCOC(=O)CSc1nc2cc(C)cc(C)c2cc1C#N", "hERG current change (%, negative = inhibition) at 1uM": 13.4}, {"smiles": "COc1ccc(NC(=O)C2(c3ccc(NC(=O)c4ccc(OC)c(OC)c4)cc3)CCCC2)cc1", "hERG current change (%, negative = inhibition) at 1uM": 0.557}, {"smiles": "CCOC(=O)c1c(C)[nH]c(C(=O)CSc2nc(C)cc(C)n2)c1C", "hERG current change (%, negative = inhibition) at 1uM": 10.2}, {"smiles": "O=C(NC1CCCc2ccccc21)c1ccc(=O)[nH]c1", "note": "(stereo not shown)", "hERG current change (%, negative = inhibition) at 1uM": -5.45}, {"smiles": "Cc1cc(C)c(C#N)c(SC(C(=O)NC(C)(C)C)c2ccccc2)n1", "note": "(stereo not shown)", "hERG current change (%, negative = inhibition) at 1uM": 15.7}, {"smiles": "CN(C)C(=O)c1cc(C(=O)c2ccc(F)cc2Cl)c[nH]1", "hERG current change (%, negative = inhibition) at 1uM": 11.9}, {"smiles": "COC(=O)c1sc2ccc(C)cc2c1C(=O)OC", "hERG current change (%, negative = inhibition) at 1uM": 9.41}, {"smiles": "CCOc1ccc(NC(=O)CN2C(=O)COc3ccc(S(=O)(=O)N4CCCCC4)cc32)cc1", "hERG current change (%, negative = inhibition) at 1uM": 6.28}, {"smiles": "O=C(NCc1ccc2c(c1)CCO2)Nc1cccc(C(F)(F)F)c1", "hERG current change (%, negative = inhibition) at 1uM": 13.1}, {"smiles": "CN(CC(=O)Nc1ccc(Cl)c(C(F)(F)F)c1)C(=O)c1ccc(OCC2CCCO2)cc1", "note": "(stereo not shown)", "hERG current change (%, negative = inhibition) at 1uM": 11.5}, {"smiles": "O=C(O)c1ccc(-c2nc(-c3ccccc3Cl)cs2)cc1", "hERG current change (%, negative = inhibition) at 1uM": 4.9}, {"smiles": "CCOc1ccc(CCNC(=O)COC(=O)COc2ccc(C#N)cc2)cc1OCC", "hERG current change (%, negative = inhibition) at 1uM": 1.47}, {"smiles": "CCOC(=O)C(Cc1cc(C(C)=O)ccc1OCC)C(=O)OCC", "hERG current change (%, negative = inhibition) at 1uM": 6.74}, {"smiles": "O=C(CSC1=Nc2ccccc2C2=NC(c3ccccc3)C(=O)N12)NCC1CCCO1", "note": "(stereo not shown)", "hERG current change (%, negative = inhibition) at 1uM": 3.29}, {"smiles": "CC1CC(=O)C(C2c3ccccc3CCN2C(=O)CCl)C(=O)C1", "note": "(stereo not shown)", "hERG current change (%, negative = inhibition) at 1uM": 1.3}, {"smiles": "CC(C)C(=O)N=C1SC2CS(=O)(=O)CC2N1Cc1ccccc1", "note": "(stereo not shown)", "hERG current change (%, negative = inhibition) at 1uM": 5.09}, {"smiles": "CCC(=O)NCCc1nc2cc(NC(=O)c3ccccc3OC)ccc2n1C", "hERG current change (%, negative = inhibition) at 1uM": 11.3}, {"smiles": "O=[N+]([O-])c1cccnc1Sc1ccc(F)cc1", "hERG current change (%, negative = inhibition) at 1uM": 4.1}, {"smiles": "CCOc1ccccc1C(=O)OCC(=O)Nc1cc(S(=O)(=O)N2CCOCC2)ccc1C", "hERG current change (%, negative = inhibition) at 1uM": 5.08}, {"smiles": "O=C(N/C(=C\\c1cn(-c2ccccc2)nc1-c1ccc(Cl)cc1)C(=O)N1CCOCC1)c1ccccc1", "hERG current change (%, negative = inhibition) at 1uM": 10.5}, {"smiles": "O=C(COC(=O)c1ccc2c(=O)n3c(nc2c1)CCC3)NC1CCS(=O)(=O)C1", "note": "(stereo not shown)", "hERG current change (%, negative = inhibition) at 1uM": 7.45}, {"smiles": "Cc1cccc2cccnc12", "hERG current change (%, negative = inhibition) at 1uM": 10.6}, {"smiles": "CCCN1C(=O)c2ccccc2NC1c1ccc(Br)cc1", "note": "(stereo not shown)", "hERG current change (%, negative = inhibition) at 1uM": 6.1}, {"smiles": "COCCCNC(=O)c1c(N)n(-c2ccc3c(c2)OCO3)c2nc3ccccc3nc12", "hERG current change (%, negative = inhibition) at 1uM": 10.2}, {"smiles": "Cc1ccc(NC(=O)N2CCCC2C(=O)NCc2ccccc2Cl)cc1", "note": "(stereo not shown)", "hERG current change (%, negative = inhibition) at 1uM": 12.4}]}]}
